Source: paper PMC4336329 (PLoS ONE, 2015)
Among all 310,000 compounds or so, about 2,200 (0.71%) showed an effect of 50% or more. Effects have a minus sign here. The list shows a part of the results.

What follows are molecules tested against human ether-à-go-go-related gene (hERG) potassium channel (human, UniProt Q12809) (assay: primary screen, population patch clamp on CHO cells stably expressing hERG).
Sequence of human ether-à-go-go-related gene (hERG) potassium channel (Q12809 whole entry, looked up): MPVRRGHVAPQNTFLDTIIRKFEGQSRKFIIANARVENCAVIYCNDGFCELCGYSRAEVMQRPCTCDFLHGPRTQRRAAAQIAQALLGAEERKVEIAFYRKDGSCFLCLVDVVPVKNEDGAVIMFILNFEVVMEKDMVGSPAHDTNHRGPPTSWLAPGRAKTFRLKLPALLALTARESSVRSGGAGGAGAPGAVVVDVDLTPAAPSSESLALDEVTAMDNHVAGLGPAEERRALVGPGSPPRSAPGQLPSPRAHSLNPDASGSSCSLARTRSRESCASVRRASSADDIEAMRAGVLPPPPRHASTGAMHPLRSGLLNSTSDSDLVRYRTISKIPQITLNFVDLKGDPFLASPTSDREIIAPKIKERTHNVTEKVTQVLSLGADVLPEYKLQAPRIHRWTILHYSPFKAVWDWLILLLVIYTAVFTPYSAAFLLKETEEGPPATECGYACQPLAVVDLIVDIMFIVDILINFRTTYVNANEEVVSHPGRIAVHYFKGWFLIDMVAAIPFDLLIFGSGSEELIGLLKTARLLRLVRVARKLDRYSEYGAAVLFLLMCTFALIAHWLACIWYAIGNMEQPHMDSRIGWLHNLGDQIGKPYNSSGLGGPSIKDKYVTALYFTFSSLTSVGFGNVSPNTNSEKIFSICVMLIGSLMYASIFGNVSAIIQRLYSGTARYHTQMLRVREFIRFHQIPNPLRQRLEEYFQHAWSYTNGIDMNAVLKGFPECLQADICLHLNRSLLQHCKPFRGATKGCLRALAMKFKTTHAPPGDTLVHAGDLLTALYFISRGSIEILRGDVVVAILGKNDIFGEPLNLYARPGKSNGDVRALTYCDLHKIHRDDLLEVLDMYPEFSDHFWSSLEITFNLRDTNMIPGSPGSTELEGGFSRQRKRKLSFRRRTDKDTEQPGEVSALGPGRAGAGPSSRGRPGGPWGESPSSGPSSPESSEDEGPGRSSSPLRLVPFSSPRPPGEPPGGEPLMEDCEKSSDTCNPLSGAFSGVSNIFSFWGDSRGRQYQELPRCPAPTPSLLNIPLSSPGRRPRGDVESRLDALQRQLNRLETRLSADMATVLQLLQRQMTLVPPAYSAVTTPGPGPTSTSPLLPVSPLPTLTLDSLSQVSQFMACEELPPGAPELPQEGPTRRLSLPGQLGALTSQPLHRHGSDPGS

| Compound | hERG current change (%, negative = inhibition) at 1uM |
| --- | --- |
| OC[C@@H]1CCCN1Cc1nc(-c2cccs2)no1 | 10.5% |
| CN(C)CCn1c(NC(=O)c2ccc(Cl)cc2)nc2ccccc21 | -4.94% |
| CCc1ccc2nc(N(CCN(C)C)C(=O)c3ccc4ncsc4c3)sc2c1.Cl | -20.7% |
| CCNC(=O)CC1C(=O)N(c2ccc(F)cc2)C(=S)N1CCc1ccncc1 (centres unmarked) | -4.91% |
| O=c1[nH]c2ccc(S(=O)(=O)N3CCN(c4ccccc4)CC3)cc2[nH]c1=O | 4.03% |
| Cc1cc(C(=O)NNC(=S)NCc2ccco2)n(C)n1.c1ccccc1 | 13.4% |
| Fc1ccc(-c2ccnn2-c2ccccc2)cc1 | 17.1% |
| Cn1ncc(C#N)c1/N=C/N1CCCCC1 | 16.3% |
| CC(C)(C)c1ccc(C(=O)OC/C(O)=C(\C#N)c2nc3ccccc3s2)cc1 | 9.43% |
| CC(=O)c1c(C)oc2c1cc(O)c1ccccc12 | 8.77% |
| COc1ccc(CNC(=O)CCNS(=O)(=O)c2cccc3nsnc23)cc1 | 2.37% |
| COc1ccc(N=C2SC(C(=O)Nc3ccc(OC)cc3)CC(=O)N2CCN2CCOCC2)cc1 (centres unmarked) | -0.767% |
| COC(=O)c1cc(S(=O)(=O)NCc2cc(OC)c(OC)c(OC)c2)cn1C | 11.7% |
| CN(CCc1ccccn1)C(=O)CCC1CCCN(C(=O)c2ccsc2)C1 (centres unmarked) | 6.68% |
| Cc1ccc(-n2[nH]c(C)c(C=Nc3ccc(S(=O)(=O)Nc4nc(C)cc(C)n4)cc3)c2=O)c(C)c1 | 8.63% |
| Cc1ccnc(SCc2cc(=O)c(OC(=O)c3ccc(S(=O)(=O)N(C)C)cc3)co2)n1 | 0.257% |
| CCN(CC)c1ccc(NC(=O)COc2ccccc2C#N)cc1S(=O)(=O)Nc1ccccc1OC | 5.28% |
| CCN1CCN(c2ccc(S(=O)(=O)N3CCCCC3)cc2NC(=O)/C=C/c2ccc(OC)c(OC)c2)CC1 | -10% |
| NS(=O)(=O)c1ccc(CCNC(=O)/C=C/c2ccc([N+](=O)[O-])cc2)cc1 | -12.2% |

| Compound | hERG current change (%, negative = inhibition) at 1uM |
| --- | --- |
| COc1ccc(CNC(=O)c2ccc(Br)o2)cc1 | 10.4% |
| Cn1nc(SCC(=O)O)sc1=S | 7.24% |
| CCCCn1nnnc1SCC(=O)NNC(=O)C1CCCCC1 | 3.37% |
| CSCCC(NC(=O)COc1ccccc1)C(=O)N1CC(C)OC(C)C1 (centres unmarked) | 10.5% |
| Cc1ccc(CNc2cc(C(=O)O)ccc2Cl)s1 | 12.5% |
| CCOc1cc(C2C(C#N)=C(N)SC(N)=C2C#N)ccc1OCCN1CCOCC1 | 3.1% |
| CCCCSC1=NN1c1nc(N)nc(C)c1CC | -7.53% |
| CCN1C(=O)C(CC(=O)Nc2ccccc2)S/C1=N\c1ccccn1 (centres unmarked) | 11.5% |
| CC1CCN(CCCn2c(=S)[nH]c3ccc(N4CCOCC4)cc3c2=O)CC1 | 12.2% |
| CCCc1cc(=O)oc2cc(C)cc(OC(C)C(=O)NCc3ccncc3)c12 (centres unmarked) | -9.94% |
| CCOC(=O)C1CCCN(C(=O)c2cc(S(=O)(=O)N(C)C)ccc2N2CCCC2)C1 (centres unmarked) | -1.51% |
| CCc1ccc(OS(=O)(=O)c2cn(C)c(=O)n(C)c2=O)cc1 | 14.8% |
| O=C1CCC(=O)N1c1ccccc1 | 12.3% |
| CCC(N=c1cc(-c2ccc(OC)cc2)oc2ccc(C)cc12)C(=O)O (centres unmarked) | -23.6% |
| COc1ccccc1C(=O)COC(=O)COc1cccc2c1OC(C)(C)C2 | 11.8% |
| CC(C)C12CN3CC(C(C)C)(CN(C1)C3(C)C)C2=O | 5.38% |
| CCOc1cc2c(C#N)c(N3CCNCC3)nc(N)c2c(N)n1 | 11% |
| COC(=O)c1ccc(C)c(NC(=O)CSc2nc3[nH]c(=O)cc(O)c3s2)c1 | 18.1% |
| CC(=O)n1cc([C@@H]2C=C(C(=O)NCc3ccccc3)O[C@H](OCCCCO)C2)c2ccccc21 | -16.7% |

| Compound | hERG current change (%, negative = inhibition) at 1uM |
| --- | --- |
| COc1cc(C(=O)NC2CCCCC2)ccc1OCc1ccc(Cl)cc1Cl | 9.14% |
| COc1ccccc1N1CCN(C(=O)Cn2nc3n(C)c4ccccc4n3c(=O)c2=O)CC1 | 2.55% |
| CC(=O)C1=C(O)C(=O)N(c2ccc(Br)cn2)C1c1ccccc1[N+](=O)[O-] (centres unmarked) | 16.1% |
| CC(Cc1cccs1)NC(=S)Nc1ccccc1 (centres unmarked) | 11.7% |
| Cc1ccc(NC(=O)CCNC(=O)c2ccc(Cl)cc2)cc1F | 11.1% |
| Cc1cc(C)cc(Nc2ccc(C(=O)O)cc2[N+](=O)[O-])c1 | 12.2% |
| COc1ccccc1-n1c(SCC(=O)NC(C)(C)C)nc(O)c(Cc2ccccc2)c1=O | 3.31% |
| Cc1ccc(NC(=O)Cn2cc(S(=O)(=O)c3ccc(C)cc3)c(=O)c3cc(F)ccc32)cc1 | -1.49% |
| COc1cccc(-n2ccnc2SCC(=O)Nc2nccs2)c1 | -3.42% |
| O=C(NCCc1ccc([N+](=O)[O-])cc1)c1ccccc1 | 7.23% |
| Nc1ccc(N2CCOCC2)cc1C(F)(F)F | 14% |
| O=C(Nc1ccccc1)N1CCn2c(nc3ccccc32)C1 | -6.18% |
| CCn1nc(C)c(/C=N/NC(=O)Cc2ccc(Cl)cc2)c1C | 7.81% |
| COC(c1ccccc1)c1nc2ccccc2[nH]c1=O (centres unmarked) | 15.7% |
| O=C(Nc1cccc(Oc2ccc3c(c2)C(=O)NC3=O)c1)c1cccs1 | -2.79% |
| CN1C(=O)C(=Cc2ccccc2OCc2ccc(Cl)cc2)C(=O)N(C)C1=O | 0.0606% |
| COc1ccc2oc(C(=O)OCC(=O)NCCc3ccccc3)c(C)c2c1 | 2.83% |
| Cc1ccc(OCc2cc(C(=O)N(C)CCc3ccccn3)no2)cn1 | 11.5% |
